In the supplement of paper PMC8728848:
This is one part of the list.

How the values were obtained:
Assay in all cases: glycan array binding signal (z-score within array); higher = stronger binding
Settings in all cases: glycan notation: IUPAC condensed, linker removed
Fuc(a1-3)GlcNAc = target: Fuc(a1-3)GlcNAc
Outline: (§1)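 Columns mapping to the same glycan were averaged after glycan names were converted to IUPAC-condensed notation. The data come from 3228 arrays in the Consortium for Functional Glycomics database, limited to those with an available protein sequence. Binding is reported as a within-array Z-score averaged across arrays of one protein sequence and across linkers.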

[1] = target: Fuc(a1-3)[Gal(b1-4)]Glc6S
Outline: as §1

[2] = target: Fuc(a1-3)[Gal(b1-4)]GlcNAc
Outline: as §1

[3] = target: Fuc(a1-3)[Gal(b1-4)]GlcNAc(b1-2)Man
Outline: as §1

[4] = target: Fuc(a1-3)[Gal(b1-4)]GlcNAc(b1-2)Man(a1-3)[Fuc(a1-3)[Gal(b1-4)]GlcNAc(b1-2)Man(a1-6)]Man(b1-4)GlcNAc(b1-4)GlcNAc
Outline: as §1

[5] = target: Fuc(a1-3)[Gal(b1-4)]GlcNAc(b1-2)Man(a1-3)[Fuc(a1-3)[Gal(b1-4)]GlcNAc(b1-2)Man(a1-6)]Man(b1-4)GlcNAc(b1-4)[Fuc(a1-6)]GlcNAc
Outline: as §1

[6] = target: Fuc(a1-3)[Gal(b1-4)]GlcNAc(b1-3)Gal(b1-3)[Fuc(a1-4)]GlcNAc
Outline: as §1

[7] = target: Fuc(a1-3)[Gal(b1-4)]GlcNAc(b1-3)Gal(b1-4)[Fuc(a1-3)]GlcNAc
Outline: as §1

[8] = target: Fuc(a1-3)[Gal(b1-4)]GlcNAc(b1-3)Gal(b1-4)[Fuc(a1-3)]GlcNAc(b1-3)Gal(b1-4)[Fuc(a1-3)]GlcNAc
Outline: as §1

[9] = target: Fuc(a1-3)[Gal(b1-4)]GlcNAc(b1-3)GalNAc
Outline: as §1

[10] = target: Fuc(a1-3)[Gal(b1-4)]GlcNAc(b1-6)GalNAc
Outline: as §1

[11] = target: Fuc(a1-3)[Gal(b1-4)]GlcNAc(b1-6)[Gal(b1-3)GlcNAc(b1-3)]Gal(b1-4)Glc
Outline: as §1

[12] = target: Fuc(a1-3)[Gal(b1-4)]GlcNAc6S
Outline: as §1

[13] = target: Fuc(a1-3)[Gal3S(b1-4)]Glc
Outline: as §1

[14] = target: Fuc(a1-3)[Gal3S(b1-4)]GlcNAc
Outline: as §1

[15] = target: Fuc(a1-3)[Gal3S(b1-4)]GlcNAc6S
Outline: as §1

[16] = target: Fuc(a1-3)[GalNAc(b1-4)]GlcNAc
Outline: as §1

[17] = target: Fuc(a1-3)[GalNAc(b1-4)]GlcNAc6S
Outline: as §1

Fuc(a1-4)GlcNAc = target: Fuc(a1-4)GlcNAc
Outline: as §1

Fuc(b1-3)GlcNAc = target: Fuc(b1-3)GlcNAc
Outline: as §1

Gal(a1-2)Gal = target: Gal(a1-2)Gal
Outline: as §1

Gal(a1-3)Gal = target: Gal(a1-3)Gal
Outline: as §1

Gal(a1-3)Gal(b1-3)GlcNAc = target: Gal(a1-3)Gal(b1-3)GlcNAc
Outline: as §1

[18] = target: Gal(a1-3)Gal(b1-3)GlcNAc(b1-2)Man
Outline: as §1

[19] = target: Gal(a1-3)Gal(b1-3)GlcNAc(b1-2)Man(a1-3)[Gal(a1-3)Gal(b1-3)GlcNAc(b1-2)Man(a1-6)]Man(b1-4)GlcNAc(b1-4)GlcNAc
Outline: as §1

[20] = target: Gal(a1-3)Gal(b1-3)GlcNAc(b1-3)GalNAc
Outline: as §1

[21] = target: Gal(a1-3)Gal(b1-3)GlcNAc(b1-6)GalNAc
Outline: as §1

[22] = target: Gal(a1-3)Gal(b1-3)[Fuc(a1-4)]GlcNAc(b1-2)Man(a1-3)[Gal(a1-3)Gal(b1-3)[Fuc(a1-4)]GlcNAc(b1-2)Man(a1-6)]Man(b1-4)GlcNAc(b1-4)GlcNAc
Outline: as §1

Gal(a1-3)Gal(b1-4)Glc = target: Gal(a1-3)Gal(b1-4)Glc
Outline: as §1

Gal(a1-3)Gal(b1-4)GlcNAc = target: Gal(a1-3)Gal(b1-4)GlcNAc
Outline: as §1

[23] = target: Gal(a1-3)Gal(b1-4)GlcNAc(b1-2)Man
Outline: as §1

[24] = target: Gal(a1-3)Gal(b1-4)GlcNAc(b1-2)Man(a1-3)[Gal(a1-3)Gal(b1-4)GlcNAc(b1-2)Man(a1-6)]Man(b1-4)GlcNAc(b1-4)GlcNAc
Outline: as §1

[25] = target: Gal(a1-3)Gal(b1-4)GlcNAc(b1-3)GalNAc
Outline: as §1

[26] = target: Gal(a1-3)Gal(b1-4)GlcNAc(b1-6)GalNAc
Outline: as §1

[27] = target: Gal(a1-3)Gal(b1-4)[Fuc(a1-3)]GlcNAc
Outline: as §1

[28] = target: Gal(a1-3)Gal(b1-4)[Fuc(a1-3)]GlcNAc(b1-2)Man(a1-3)[Gal(a1-3)Gal(b1-4)[Fuc(a1-3)]GlcNAc(b1-2)Man(a1-6)]Man(b1-4)GlcNAc(b1-4)GlcNAc
Outline: as §1

Gal(a1-3)GalNAc = target: Gal(a1-3)GalNAc
Outline: as §1

[29] = target: Gal(a1-3)[Gal(a1-4)]Gal(b1-4)GlcNAc
Outline: as §1

[30] = target: Gal(a1-4)Gal(b1-3)GlcNAc(b1-2)Man(a1-3)[Gal(a1-4)Gal(b1-3)GlcNAc(b1-2)Man(a1-6)]Man(b1-4)GlcNAc(b1-4)GlcNAc
Outline: as §1

Gal(a1-4)Gal(b1-4)Glc = target: Gal(a1-4)Gal(b1-4)Glc
Outline: as §1

Gal(a1-4)Gal(b1-4)GlcNAc = target: Gal(a1-4)Gal(b1-4)GlcNAc
Outline: as §1

[31] = target: Gal(a1-4)Gal(b1-4)GlcNAc(b1-2)Man(a1-3)[Gal(a1-4)Gal(b1-4)GlcNAc(b1-2)Man(a1-6)]Man(b1-4)GlcNAc(b1-4)GlcNAc
Outline: as §1

[32] = target: Gal(a1-4)Gal(b1-4)GlcNAc(b1-3)Gal(b1-4)Glc
Outline: as §1

Gal(a1-4)GlcNAc = target: Gal(a1-4)GlcNAc
Outline: as §1

Gal(a1-6)Glc = target: Gal(a1-6)Glc
Outline: as §1

Gal(b1-2)Gal = target: Gal(b1-2)Gal
Outline: as §1

Gal(b1-3)Gal = target: Gal(b1-3)Gal
Outline: as §1

Gal(b1-3)Gal(b1-4)GlcNAc = target: Gal(b1-3)Gal(b1-4)GlcNAc
Outline: as §1

Gal(b1-3)GalNAc = target: Gal(b1-3)GalNAc
Outline: as §1

[33] = target: Gal(b1-3)GalNAc(a1-3)[Fuc(a1-2)]Gal(b1-4)Glc
Outline: as §1

[34] = target: Gal(b1-3)GalNAc(a1-3)[Fuc(a1-2)]Gal(b1-4)GlcNAc
Outline: as §1

Gal(b1-3)GalNAc(b1-3)Gal = target: Gal(b1-3)GalNAc(b1-3)Gal
Outline: as §1

[35] = target: Gal(b1-3)GalNAc(b1-3)Gal(a1-4)Gal(b1-4)Glc
Outline: as §1

[36] = target: Gal(b1-3)GalNAc(b1-4)Gal(b1-4)Glc
Outline: as §1

[37] = target: Gal(b1-3)GalNAc(b1-4)[Neu5Ac(a2-3)]Gal(b1-4)Glc
Outline: as §1

Gal(b1-3)GlcNAc = target: Gal(b1-3)GlcNAc
Outline: as §1

[38] = target: Gal(b1-3)GlcNAc(a1-3)Gal(b1-4)GlcNAc
Outline: as §1

[39] = target: Gal(b1-3)GlcNAc(a1-6)Gal(b1-4)GlcNAc
Outline: as §1

Gal(b1-3)GlcNAc(b1-2)Man = target: Gal(b1-3)GlcNAc(b1-2)Man
Outline: as §1

[40] = target: Gal(b1-3)GlcNAc(b1-2)Man(a1-3)[Gal(b1-3)GlcNAc(b1-2)Man(a1-6)]Man(b1-4)GlcNAc(b1-4)GlcNAc
Outline: as §1

B1: Pa IMPa (Pseudomonas aeruginosa), Q9I5W4 (protein)
chain: MSLSTTAFPSLQGENMSRSPIPRHRALLAGFCLAGALSAQAATQEEILDAALVSGDSSQLTDSHLVALRLQQQVERIRQTRTQLLDGLYQNLSQAYDPGAASMWVLPANPDNTLPFLIGDKGRVLASLSLEAGGRGLAYGTNVLTQLSGTNAAHAPLLKRAVQWLVNGDPGAATAKDFKVSVVGVDKTAALNGLKSAGLQPADAACNALTDASCASTSKLLVLGNGASAASLSATVRARLQAGLPILFVHTNGWNQSSTGQQILAGLGLQEGPYGGNYWDKDRVPSSRTRTRSVELGGAYGQDPALVQQIVDGSWRTDYDWSKCTSYVGRTTCDDVPGLSDFSKRVDVLKGALDAYNQKAQNLFALPGTTSLRLWLLWADAVRQNIRYPMDKAADTARFQETFVADAIVGYVREAGAAQKELGSYAGQRQQSMPVSGSEETLTLTLPSAQGFTAIGRMAAPGKRLSIRIEDAGQASLAVGLNTQRIGSTRLWNTRQYDRPRFLKSPDIKLQANQSVALVSPYGGLLQLVYSGATPGQTVTVKVTGAASQPFLDIQPGEDSSQAIADFIQALDADKADWLEIRSGSVEVHAKVEKVRGSIDKDYGGDVQRFIRELNEVFIDDAYTLAGFAIPNQAKTPAIQQECAARGWDCDSETLHKLPGTQHINVDQYAQCGGGCSGNPYDQTWGLNPRGWGESHELGHNLQVNRLKVYGGRSGEISNQIFPLHKDWRVLREFGQNLDDTRVNYRNAYNLIVAGRAEADPLAGVYKRLWEDPGTYALNGERMAFYTQWVHYWADLKNDPLQGWDIWTLLYLHQRQVDKSDWDANKAALGYGTYAQRPGNSGDASSTDGNDNLLLGLSWLTQRDQRPTFALWGIRTSAAAQAQVAAYGFAEQPAFFYANNRTNEYSTVKLLDMSQGSPAWPFP
glycan array binding signal (z-score) (Fuc(a1-3)GlcNAc): -0.778
glycan array binding signal (z-score) [1]: -0.367
glycan array binding signal (z-score) [2]: 0.063
glycan array binding signal (z-score) [3]: 0.117
glycan array binding signal (z-score) [4]: -0.168
glycan array binding signal (z-score) [5]: -0.246
glycan array binding signal (z-score) [6]: 0.038
glycan array binding signal (z-score) [7]: -0.199
glycan array binding signal (z-score) [8]: -0.017
glycan array binding signal (z-score) [9]: -0.076
glycan array binding signal (z-score) [10]: -0.32
glycan array binding signal (z-score) [11]: -0.305
glycan array binding signal (z-score) [12]: -0.132
glycan array binding signal (z-score) [13]: -0.077
glycan array binding signal (z-score) [14]: -0.278
glycan array binding signal (z-score) [15]: 0.067
glycan array binding signal (z-score) [16]: -0.488
glycan array binding signal (z-score) [17]: -0.085
glycan array binding signal (z-score) (Fuc(a1-4)GlcNAc): -0.114
glycan array binding signal (z-score) (Fuc(b1-3)GlcNAc): -0.299
glycan array binding signal (z-score) (Gal(a1-2)Gal): -0.288
glycan array binding signal (z-score) (Gal(a1-3)Gal): 0.105
glycan array binding signal (z-score) (Gal(a1-3)Gal(b1-3)GlcNAc): 0.654
glycan array binding signal (z-score) [18]: -0.472
glycan array binding signal (z-score) [19]: 0.632
glycan array binding signal (z-score) [20]: -0.048
glycan array binding signal (z-score) [21]: 0.952
glycan array binding signal (z-score) [22]: 0.555
glycan array binding signal (z-score) (Gal(a1-3)Gal(b1-4)Glc): -0.354
glycan array binding signal (z-score) (Gal(a1-3)Gal(b1-4)GlcNAc): -0.215
glycan array binding signal (z-score) [23]: 0.435
glycan array binding signal (z-score) [24]: -0.24
glycan array binding signal (z-score) [25]: -0.223
glycan array binding signal (z-score) [26]: -0.318
glycan array binding signal (z-score) [27]: -0.206
glycan array binding signal (z-score) [28]: -0.155
glycan array binding signal (z-score) (Gal(a1-3)GalNAc): -0.259
glycan array binding signal (z-score) [29]: 0.332
glycan array binding signal (z-score) [30]: -0.317
glycan array binding signal (z-score) (Gal(a1-4)Gal(b1-4)Glc): -0.249
glycan array binding signal (z-score) (Gal(a1-4)Gal(b1-4)GlcNAc): -0.01
glycan array binding signal (z-score) [31]: -0.163
glycan array binding signal (z-score) [32]: -0.463
glycan array binding signal (z-score) (Gal(a1-4)GlcNAc): -0.324
glycan array binding signal (z-score) (Gal(a1-6)Glc): -0.327
glycan array binding signal (z-score) (Gal(b1-2)Gal): 0.524
glycan array binding signal (z-score) (Gal(b1-3)Gal): -0.195
glycan array binding signal (z-score) (Gal(b1-3)Gal(b1-4)GlcNAc): -0.419
glycan array binding signal (z-score) (Gal(b1-3)GalNAc): -0.361
glycan array binding signal (z-score) [33]: -0.36
glycan array binding signal (z-score) [34]: -0.247
glycan array binding signal (z-score) (Gal(b1-3)GalNAc(b1-3)Gal): -0.165
glycan array binding signal (z-score) [35]: -0.679
glycan array binding signal (z-score) [36]: -0.547
glycan array binding signal (z-score) [37]: -0.11
glycan array binding signal (z-score) (Gal(b1-3)GlcNAc): -0.34
glycan array binding signal (z-score) [38]: 1.27
glycan array binding signal (z-score) [39]: -0.091
glycan array binding signal (z-score) (Gal(b1-3)GlcNAc(b1-2)Man): -0.24
glycan array binding signal (z-score) [40]: -0.556
